According to PubChem BioAssay AID624417 (National Center for Advancing Translational Sciences (NCATS), 2012):
Screen size: about 410,000 compounds; about 6,400 (1.6%) were called active. This list was built around the results that the source calls inconclusive (neither active nor inactive); the mix of calls is not that of the screen. The call rests on the fitted dose curve; in most records, active means well fitted inhibition curve with a large enough effect; inconclusive means small, poorly fitted or top-dose-only effect; inactive means no such curve, though single readings can be large or run the other way. No potency is given beside an inconclusive call; the fits are too rough.

Molecular target: Glucagon-like peptide 1 receptor (Homo sapiens) (UniProt P43220)
UniProt P43220, sequence (P43220 whole entry, looked up): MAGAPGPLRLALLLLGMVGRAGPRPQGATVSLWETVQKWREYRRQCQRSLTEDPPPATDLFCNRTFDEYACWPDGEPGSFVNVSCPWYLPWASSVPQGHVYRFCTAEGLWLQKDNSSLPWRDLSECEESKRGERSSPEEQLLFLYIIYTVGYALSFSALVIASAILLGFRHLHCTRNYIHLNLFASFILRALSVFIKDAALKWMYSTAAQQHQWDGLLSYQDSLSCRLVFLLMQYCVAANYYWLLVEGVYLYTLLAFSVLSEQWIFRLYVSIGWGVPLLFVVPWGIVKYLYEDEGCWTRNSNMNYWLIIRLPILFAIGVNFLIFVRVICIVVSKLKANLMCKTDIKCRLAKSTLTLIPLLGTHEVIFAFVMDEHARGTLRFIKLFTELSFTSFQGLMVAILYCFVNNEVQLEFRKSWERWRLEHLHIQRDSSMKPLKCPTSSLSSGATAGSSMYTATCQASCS
Assay: qHTS of GLP-1 Receptor Inverse Agonists (Inhibition Mode); further: nearly all actives have a fitted effect of over 55% in size
Settings: HEK293 GLP-1R CRE-luciferase, luminescence, 24 h, GLP-1R form is constitutively active; activity change, negative = inhibition: at 38.3 µM (top of the series) unless noted
How it was run: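 Cells are plated, allowed 12 hours at 37 deg C, then treated with compounds for 24 hr before luciferase detection reagent is added and luminescence is read after 12 min at room temperature. The HEK293 line carries constitutively active GLP-1R with a cAMP-responsive reporter.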
On the % scale 0 is the no-effect control and ±100 the full control effect; potency means the concentration at half of the fitted maximal effect; tags describe the fitted curve by direction and shape.

Row | Structure (SMILES) | activity change, negative = inhibition | Potency
1 | O=C(NC1CCCC1)C(c1ccccc1)N(C(=O)c1csnn1)c1ccccc1F (stereo unspecified) | inactive: -8.88% | 
2 | COc1cc(C(=O)N2CCCCC2c2cc(C(=O)Nc3ccccc3)no2)cc(OC)c1C (stereo unspecified) |  | inconclusive [inhibitor, single point]
3 | CCOc1ccccc1NC(=S)NC(=O)CCCOc1ccc(Cl)cc1Cl | inactive: -3.99% | 
4 | CCN(CC)S(=O)(=O)c1cc(-c2ccc(=O)n(C(C)C(=O)Nc3cccc(C#N)c3)n2)ccc1C (stereo unspecified) | inactive: -2.54% | 
5 | C=CCn1c(SCc2csc(C)n2)nc2sc3c(c2c1=O)CCCC3 |  | inconclusive [inhibitor, single point]
6 | CN(C)S(=O)(=O)c1cccc(NC(=O)COc2ccc(C(=O)c3ccccc3)cc2)c1 |  | inconclusive [inhibitor, partial curve, poor fit]
7 | COc1ccc(-c2noc(CSc3nnc(Cc4ccccc4)n3-c3ccc(F)cc3)n2)cc1 |  | inconclusive [inhibitor, single point]
8 | O=[N+]([O-])c1ccc(Nc2ccccc2)nc1 |  | inconclusive [inhibitor, single point]
9 | COc1ccccc1Cc1c(-c2ccc(F)cc2)nc2ccc(Br)cn12 |  | inconclusive [inhibitor, partial curve, poor fit]
10 | CCN(CC)CCCNC(=O)c1sc2nc3n(c(=O)c2c1C)CCCCC3 | inactive: 0.0715% | 
11 | COc1cc(/C=C/c2ccc3cccc(OC)c3n2)c(OC(C)=O)c([N+](=O)[O-])c1 | inactive: -24.2% | 
12 | CC1=CC2=NC(=O)/C(=C\c3cccn3CCOc3ccccc3)C(=N)N2O1 |  | inconclusive [inhibitor, single point]
13 | COc1ccc2oc(=Nc3cc(F)ccc3F)c(C(N)=O)cc2c1 |  | inconclusive [inhibitor, partial curve, poor fit]
14 | COc1ccc(Cl)cc1C(=O)CSc1nnnn1C1CCCCC1 |  | inconclusive [inhibitor, single point]
15 | Cc1ccccc1OCC(=O)NCC(c1cccs1)N1CCOCC1 (stereo unspecified) |  | inconclusive [inhibitor, partial curve, poor fit]
16 | Cc1c(Cc2ccccc2)sc(/N=C/c2ccc3ccccc3c2)c1C(N)=O |  | inconclusive [inhibitor, full curve, poor fit]
17 | CCOc1ccc(CN(C)C(=O)Cc2c[nH]c3ccccc23)cc1 |  | inconclusive [inhibitor, partial curve, poor fit]
18 | O=C(Oc1ccc(F)cc1C(=O)/C=C/c1cccs1)c1cccc([N+](=O)[O-])c1 |  | inconclusive [inhibitor, partial curve]
19 | CC(C)CC(=O)N1CC=CC[C@@H](c2ccc(Cl)cc2)N(Cc2ccc(Cl)cc2)C(=O)[C@@H]1Cc1ccccc1 |  | inconclusive [inhibitor, single point]
20 | O=C(Nc1ccccc1)OC1CCC2CC1CCC2OC(=O)Nc1ccccc1 (stereo unspecified) |  | inconclusive [inhibitor, single point]
21 | N#Cc1c(-c2ccccc2)c(-c2ccccc2)n(Cc2ccco2)c1NC(=O)c1cccs1 |  | inconclusive [inhibitor, full curve, poor fit]

Row | Structure (SMILES) | activity change, negative = inhibition | Potency
22 | CC1(C)C(C=C(Cl)Cl)C1C(=O)Nc1ccc([N+](=O)[O-])cc1 (stereo unspecified) |  | inconclusive [inhibitor, partial curve, poor fit]
23 | C=CCNC1=C(Cl)C(=O)c2ccccc2C1=O |  | inconclusive [inhibitor, single point]
24 | CCc1ccc(-c2nc(CS(=O)CC(=O)O)c(C)o2)cc1 (stereo unspecified) |  | inconclusive [inhibitor, partial curve, poor fit]
25 | Cc1ccc(S(=O)(=O)N(C)C[C@H]2Oc3ncc(-c4ccccc4)cc3C(=O)N([C@@H](C)CO)C[C@@H]2C)cc1 |  | inconclusive [inhibitor, single point]
26 | Cc1ccc(C23CC4CC(CC(C(=O)NC(C(=O)O)C(C)C)(C4)C2)C3)cc1 (stereo unspecified) |  | inconclusive [inhibitor, single point]
27 | O=C(NNC(=O)c1cccc(Br)c1)Nc1ccc(Cl)cc1 | inactive: -7.36% | 
28 | O=C(O)c1ccc2c3c(cccc13)C(=O)N(c1ccccc1)C2=O |  | inconclusive [inhibitor, full curve, poor fit]
29 | CCCn1nc(C(=O)Nc2cccc(S(=O)(=O)N3CCOCC3)c2)c2ccccc2c1=O | inactive: 4.69% | 
30 | Cn1c(=O)c2c(ncn2CC(=O)OCC(=O)Nc2ccccc2Cl)n(C)c1=O |  | inconclusive [inhibitor, full curve, poor fit]
31 | C=CCOc1ccc(CNc2ccc(NC(=O)CCC)cc2)cc1OCC |  | inconclusive [inhibitor, partial curve]
32 | COCCNS(=O)(=O)c1ccc(Cl)c(C(=O)NC2CCN(Cc3ccccc3)CC2)c1 |  | inconclusive [inhibitor, single point]
33 | CC(C)C[C@@H](COc1ccccc1)N1CCN(CCc2ccccc2)CCC1=O |  | inconclusive [inhibitor, single point]
34 | O=C(NCc1ccc(F)cc1)c1cc(C2CCCCN2S(=O)(=O)c2ccccc2)on1 (stereo unspecified) |  | inconclusive [inhibitor, partial curve]
35 | O=C(Nc1ccccc1OCc1cc(=O)n2ccccc2n1)Nc1ccccc1C(F)(F)F | inactive: 4.49% | 
36 | O=C(NCCc1ccccc1)c1cccc(NC(=O)C2CCCCC2)c1 |  | inconclusive [inhibitor, single point]
37 | O=C(NC1CCSc2ccccc21)c1cccc(OC(F)F)c1 (stereo unspecified) |  | inconclusive [inhibitor, single point]
38 | CCCOc1ccc(C(=O)NCC(c2ccco2)N(C)C)cc1OC (stereo unspecified) |  | inconclusive [inhibitor, full curve, poor fit]
39 | Cc1ccc(NC(=S)NNC(=O)c2nn(C)cc2Cl)cc1 | inactive: 7.16% | 
40 | CC(C)(C)OC(=O)N(CCc1ccccc1)Cc1ccc(OCc2cccc(NC(=O)/C=C/c3ccccc3)c2)cc1 |  | inconclusive [inhibitor, partial curve]
41 | CC(C)(C)c1ccc(CCC2OCC(CN3CCOCC3)O2)cc1 (stereo unspecified) |  | inconclusive [inhibitor, partial curve, poor fit]
42 | CC(C)(C)NC(=O)C(c1ccc(O)cc1)N(C(=O)CCC(=O)Nc1nccs1)c1ccc(F)cc1 (stereo unspecified) |  | inconclusive [inhibitor, single point]

Row | Structure (SMILES) | activity change, negative = inhibition | Potency
43 | N#Cc1c(NCCN)nc(-c2ccccc2)c2c1CCCC2 |  | inconclusive [inhibitor, partial curve, poor fit]
44 | COc1ccc(NC(=O)C2CCC(C)(C(=O)O)C2(C)C)cc1 (stereo unspecified) | inactive: 2.22% | 
45 | COc1ccccc1NCC(=O)NC(=O)NC1CCCCC1 |  | inconclusive [inhibitor, partial curve, poor fit]
46 | CCOc1ccc(NC(=S)NN(C)C(=S)Nc2ccc(OCC)cc2)cc1 |  | inconclusive [inhibitor, single point]
47 | COc1ccc(N2CCC(CNC(=O)Nc3ccccc3)C2)cc1 (stereo unspecified) |  | inconclusive [inhibitor, single point]
48 | O=C1C2C3C=CC(C3)C2C(=O)N1c1ccc2c(c1)OCO2 (stereo unspecified) |  | inconclusive [inhibitor, partial curve, poor fit]
49 | Cc1cc(=O)oc2c(C)c(OCC(=O)N3CCN(c4cccc(Cl)c4)CC3)ccc12 |  | inconclusive [inhibitor, single point]
50 | Cc1ccc(CCNC(=O)C2CC(=O)N(CCc3ccc(C)cc3)C2)cc1 (stereo unspecified) | inactive: -26.8% | 
51 | CCOC(=O)c1cccc(NC(=O)C2COc3ccc(OC)cc3C2)c1 (stereo unspecified) |  | inconclusive [inhibitor, single point]
52 | COc1ccc(NC(=O)C2Cc3c(-c4cccc(C(C)=O)c4)ccnc3O2)cn1 (stereo unspecified) |  | inconclusive [inhibitor, full curve, poor fit]
53 | COc1ccc(C(CNC(=O)c2oc3ccc(F)cc3c2C)N2CCCCC2)cc1 (stereo unspecified) |  | inconclusive [inhibitor, full curve, poor fit]
54 | c1ccc(NCc2cccc3ccccc23)nc1 |  | inconclusive [inhibitor, partial curve, poor fit]
55 | COc1ccc(OC)c(CCNC(=O)c2ccc3c(c2)N(Cc2ccccc2)CCS3)c1 |  | inconclusive [inhibitor, single point]
56 | COc1cc(C(C)=O)ccc1OCC(=O)Nc1ccccc1N1CCCCC1 |  | inconclusive [inhibitor, single point]
57 | NC(=O)CC(NC(=O)Cc1ccc(Cl)cc1)c1ccc(NC2CC3CCC2C3)c([N+](=O)[O-])c1 (stereo unspecified) |  | inconclusive [inhibitor, partial curve, poor fit]
58 | CCN(CC)S(=O)(=O)c1cccc(NC(=O)c2cc(-c3cccs3)nn2-c2ccccc2)c1 |  | inconclusive [inhibitor, full curve, poor fit]
59 | Cc1nn(-c2ccccc2)c(C)c1C(=O)OCC(=O)NC12CC3CC(CC(C3)C1)C2 |  | inconclusive [inhibitor, full curve, poor fit]
60 | Cc1cccc(N(C)S(=O)(=O)c2nnc(NC(=O)C(C)Oc3ccccc3)s2)c1 (stereo unspecified) |  | inconclusive [inhibitor, partial curve, poor fit]
61 | Cc1c(C(=O)OCc2ccccc2)[nH]c2c1C(=O)CC(c1ccco1)C2 (stereo unspecified) | inactive: -60.5% | 
